# The other results are listed elsewhere or left out.
# Legend:
# Test in all cases: glycan array binding signal (z-score within array); higher = stronger binding
# Conditions in all cases: glycan notation: IUPAC condensed, linker removed
# [1] = biological target: Neu5Ac(a2-6)Gal(b1-4)GlcNAc(b1-2)Man(a1-3)[Gal(b1-4)GlcNAc(b1-2)Man(a1-6)]Man(b1-4)GlcNAc(b1-4)GlcNAc
# Outline: (§1)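 The binding signal is a Z-score computed within each array and averaged over linkers. Arrays of the same protein sequence at different concentrations or buffers were also averaged together. Data originate from 3228 arrays in the Consortium for Functional Glycomics database, kept only where the protein sequence was available.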
# [2] = biological target: Neu5Ac(a2-6)Gal(b1-4)GlcNAc(b1-2)Man(a1-3)[GlcNAc(b1-2)Man(a1-6)]Man(b1-4)GlcNAc(b1-4)GlcNAc
# Outline: as §1
# [3] = biological target: Neu5Ac(a2-6)Gal(b1-4)GlcNAc(b1-2)Man(a1-3)[GlcNAc(b1-2)Man(b1-4)GlcNAc(b1-2)Man(a1-6)]Man(b1-4)GlcNAc(b1-4)GlcNAc
# Outline: as §1
# [4] = biological target: Neu5Ac(a2-6)Gal(b1-4)GlcNAc(b1-2)Man(a1-3)[Neu5Ac(a2-6)Gal(b1-4)GlcNAc(b1-2)Man(a1-6)]Man(b1-4)GlcNAc(b1-4)GlcNAc
# Outline: as §1
# [5] = biological target: Neu5Ac(a2-6)Gal(b1-4)GlcNAc(b1-2)Man(a1-6)[Gal(b1-4)GlcNAc(b1-2)Man(a1-3)]Man(b1-4)GlcNAc(b1-4)GlcNAc
# Outline: as §1
# [6] = biological target: Neu5Ac(a2-6)Gal(b1-4)GlcNAc(b1-2)Man(a1-6)[GlcNAc(b1-2)Man(a1-3)]Man(b1-4)GlcNAc(b1-4)GlcNAc
# Outline: as §1
# [7] = biological target: Neu5Ac(a2-6)Gal(b1-4)GlcNAc(b1-3)Gal(b1-4)GlcNAc
# Outline: as §1
# [8] = biological target: Neu5Ac(a2-6)Gal(b1-4)GlcNAc(b1-3)Gal(b1-4)[Fuc(a1-3)]GlcNAc(b1-3)Gal(b1-4)[Fuc(a1-3)]GlcNAc
# Outline: as §1
# [9] = biological target: Neu5Ac(a2-6)Gal(b1-4)GlcNAc6S
# Outline: as §1
# Neu5Ac(a2-6)GalNAc = biological target: Neu5Ac(a2-6)GalNAc
# Outline: as §1
# [10] = biological target: Neu5Ac(a2-6)GalNAc(b1-4)GlcNAc
# Outline: as §1
# Neu5Ac(a2-8)Neu5Ac = biological target: Neu5Ac(a2-8)Neu5Ac
# Outline: as §1
# [11] = biological target: Neu5Ac(a2-8)Neu5Ac(a2-3)Gal(b1-4)Glc
# Outline: as §1
# [12] = biological target: Neu5Ac(a2-8)Neu5Ac(a2-3)[GalNAc(b1-4)]Gal(b1-4)Glc
# Outline: as §1
# [13] = biological target: Neu5Ac(a2-8)Neu5Ac(a2-8)Neu5Ac
# Outline: as §1
# [14] = biological target: Neu5Ac(a2-8)Neu5Ac(a2-8)Neu5Ac(a2-3)Gal(b1-4)Glc
# Outline: as §1
# [15] = biological target: Neu5Ac(a2-8)Neu5Ac(a2-8)Neu5Ac(a2-3)[GalNAc(b1-4)]Gal(b1-4)Glc
# Outline: as §1
# [16] = biological target: Neu5Ac(a2-8)Neu5Ac(a2-8)Neu5Ac(a2-8)Neu5Ac(a2-3)[GalNAc(b1-4)]Gal(b1-4)Glc
# Outline: as §1
# [17] = biological target: Neu5Ac(b2-6)Gal(b1-4)GlcNAc
# Outline: as §1
# Neu5Ac(b2-6)GalNAc = biological target: Neu5Ac(b2-6)GalNAc
# Outline: as §1
# [18] = biological target: Neu5Ac9Ac(a2-6)Gal(b1-4)GlcNAc
# Outline: as §1
# [19] = biological target: Neu5Gc(a2-3)Gal(b1-3)GlcNAc
# Outline: as §1
# [20] = biological target: Neu5Gc(a2-3)Gal(b1-3)[Fuc(a1-4)]GlcNAc
# Outline: as §1
# Neu5Gc(a2-3)Gal(b1-4)Glc = biological target: Neu5Gc(a2-3)Gal(b1-4)Glc
# Outline: as §1
# [21] = biological target: Neu5Gc(a2-3)Gal(b1-4)GlcNAc
# Outline: as §1
# [22] = biological target: Neu5Gc(a2-3)Gal(b1-4)[Fuc(a1-3)]GlcNAc
# Outline: as §1
# [23] = biological target: Neu5Gc(a2-6)Gal(b1-4)GlcNAc
# Outline: as §1
# Neu5Gc(a2-6)GalNAc = biological target: Neu5Gc(a2-6)GalNAc
# Outline: as §1
# [24] = biological target: Neu5Gc(b2-6)Gal(b1-4)GlcNAc
# Outline: as §1
binder,measurement,setting,value
"MCI4 (Toxoplasma gondii), Q9XZH7 (protein) MRASLPVHLVVCTQLSAVWFGVAKAHGGHRLEPHVPGFLQGFTDITPAGDDVSANVTSSEPAKLDLSCVHSDNKGSRAPTIGEPVPDVSLEQCAAQCKAVDGCTHFTYNDDSKMCHVKEGKPDLYDLTGGKTASRSCDRSCFEQHVSYEGAPDVMTAMVTSQSADCQAACAADPSCEIFTYNEHDQKCTFKGRGFSAFKERGVLGVTSGPKQFCDEGGKLTQEEMEDQISGCIQLSDVGSMTADLEEPMEADSVGACMERCRCDGRCTHFTFNDNTRMCYLKGDKMQLYSSPGDRTGPKSCDSSCFSNGVSYVDDPATDVETVFEISHPIYCQVICAANPLCTVFQWYASEAKCVVKRKGFYKHRKTGVTGVTVGPREFCDFGGSIRDREEADAVGSDDGLNAEATMANSPDFHDEVECVHTGNIGSKAQTIGEVKRASSLSECRARCQAEKECSHYTYNVKSGLCYPKRGKPQFYKYLGDMTGSRTCDTSCLRRGVDYSQGPEVGKPWYSTLPTDCQVACDAEDACLVFTWDSATSRCYLIGSGFSAHRRNDVDGVVSGPYTFCDNGENLQVLEAKDTE",glycan array binding signal (z-score),[1],-0.203
same,glycan array binding signal (z-score),[2],-0.207
same,glycan array binding signal (z-score),[3],-0.211
same,glycan array binding signal (z-score),[4],-0.213
same,glycan array binding signal (z-score),[5],-0.176
same,glycan array binding signal (z-score),[6],-0.207
same,glycan array binding signal (z-score),[7],-0.211
same,glycan array binding signal (z-score),[8],-0.229
same,glycan array binding signal (z-score),[9],-0.214
same,glycan array binding signal (z-score),Neu5Ac(a2-6)GalNAc,-0.214
same,glycan array binding signal (z-score),[10],-0.229
same,glycan array binding signal (z-score),Neu5Ac(a2-8)Neu5Ac,-0.194
same,glycan array binding signal (z-score),[11],-0.209
same,glycan array binding signal (z-score),[12],-0.209
same,glycan array binding signal (z-score),[13],-0.217
same,glycan array binding signal (z-score),[14],-0.208
same,glycan array binding signal (z-score),[15],-0.21
same,glycan array binding signal (z-score),[16],-0.226
same,glycan array binding signal (z-score),[17],-0.207
same,glycan array binding signal (z-score),Neu5Ac(b2-6)GalNAc,-0.226
same,glycan array binding signal (z-score),[18],-0.189
same,glycan array binding signal (z-score),[19],-0.219
same,glycan array binding signal (z-score),[20],-0.204
same,glycan array binding signal (z-score),Neu5Gc(a2-3)Gal(b1-4)Glc,-0.214
same,glycan array binding signal (z-score),[21],-0.209
same,glycan array binding signal (z-score),[22],-0.214
same,glycan array binding signal (z-score),[23],-0.204
same,glycan array binding signal (z-score),Neu5Gc(a2-6)GalNAc,-0.165
same,glycan array binding signal (z-score),[24],-0.203

# Source: the supplement of paper PMC8728848
